B1: chr20:56370492:56370607:-|CDS|ENSG00000087586|unk|FALSE|unique (ssRNA)
RNA: GGGAGUUCUACAGUCCGACGAUCUCGGAUGCAUGAUGAGAAGGUGGAUCUCUGGAGCCUUGGAGUUCUUUGCUAUGAAUUUUUAGUUGGGAAGCCUCCUUUUGAGGCAAACACAUACCAAGAGACCUACAAAAGAAUAUCACGCAACAGAGGAUUGAGCAUCA
B2: chr16:21655520:21655610:+|3pUTR|ENSG00000197006|msi1_unk|FALSE|overlapping (ssRNA)
RNA: GGGAGUUCUACAGUCCGACGAUCUCUGUGUUCACAAUUACGUGAAGGGAGGACCCUUGGGGACCGCCAUUCUAAAUAUCAUGUAGGAAUUUAAAAAGCCAAAAUACUAAUUAUUUCUUUGUAGUGUGUAAAGGAAUGUUUUUACAACAGAGGAUUGAGCAUCA
B3: chr14:100882551:100882663:-|CDS|ENSG00000254656|unk|FALSE|unique (ssRNA)
RNA: GGGAGUUCUACAGUCCGACGAUCGCUCUCCCCAGACCCUAUCAUACCUCAGAACGUGAUUCACUUCAUCCUAAAGGACAUGCUAGGGUUCUUUGUGCUUUCUUAUGGCCAGGAAGUCCUGAUCUACUCAAUGAGUCAGGAGGACAACAGAGGAUUGAGCAUCA
B4: chr1:26281289:26281390:+|3pUTR|ENSG00000142669|msi1_unk|total|mutant (ssRNA)
RNA: GGGAGUUCUACAGUCCGACGAUCUCCCUCCUCUCUAAAUGCCGUCCCCUCUCCUCCAUCUAAAGGCAACAUUCCUUACCCAUCCGUCUCAGAAAUUGUCUUAAGCAACAGCCCCAAAUGCUGGCUGCCCCCAGCCAAGCAUUGCAACAGAGGAUUGAGCAUCA
B5: ENSG00000113068:stop:overlap|stop_codon|ENSG00000113068|stop_codon|NA|stop_codon (ssRNA)
RNA: GGGAGUUCUACAGUCCGACGAUCGAAGCGUUAAGGAAGCUGAGGACAACAUCCGGGAGAUGCUGAUGGCACGAAGGGCCCAGUAGGGAGCCUCUCUGGGAAGCUCUUCCUCCUGCCCCUCCCAUUCCUGGUGGGGGCAGAGGACAACAGAGGAUUGAGCAUCA
B6: chr11:86278520:86278536:+|CDS_3pUTR|ENSG00000074266|msi1_unk|FALSE|overlapping (ssRNA)
RNA: GGGAGUUCUACAGUCCGACGAUCUGAUGCCAGUAUUUGGCGCUGGGAUCGACUUCGAUAAAAUACUUUUGCCUAAUCAAAAUUAGAGUGUGUUUGUUGUCUGUGUAAAAUAGAAUUAAUGUAUCUUGCUAGUAAGGGCACGUACAACAGAGGAUUGAGCAUCA
B7: chr12:76028832:76028933:-|3pUTR|ENSG00000139289|msi1|total|mutant (ssRNA)
RNA: GGGAGUUCUACAGUCCGACGAUCAAAGGAAAAGACUGGAUAAACACAGGAUUUUCAGUAAGAAAACAACCCCAGUCUUGUCUCCGAAGCCACUUGUUGAGGAGUCUGUUGGGGGAAAAAAGAGGAUAUGCUUUUAAAGGCCGACAACAGAGGAUUGAGCAUCA
B8: chr2:88027786:88028563:-|CDS|ENSG00000172086|control|control|control (ssRNA)
RNA: GGGAGUUCUACAGUCCGACGAUCAACCGUACAUGUCAGUACAGAAAAGCUUAAGAAUCGAAAGGAGAAAAAAAGCCGAGAUGUAGUCUCUAAGAAAGAGGAACGUAAGCGUACAAAAAAGAAAAAGGAACAAGGCCAAGAAAGCAACAGAGGAUUGAGCAUCA
B9: chr11:85958428:85958534:-|3pUTR|ENSG00000073921|unk|total|mutant (ssRNA)
RNA: GGGAGUUCUACAGUCCGACGAUCAGAAACAAUAACUGAAAUUAACUUUUCUUUUUUUAAAAAAAAUUAUAUUCAGUUUGCAGCCGACAUUCCUUAAGUAUUUGUAUUUAUUUAUGAUUAUCAAUUUUACAUAACAUUAAUAUUCAACAGAGGAUUGAGCAUCA
B10: chr17:18327447:18327548:+|3pUTR|ENSG00000176994|msi1|total|mutant (ssRNA)
RNA: GGGAGUUCUACAGUCCGACGAUCGUCAACUCACAGAUUCUGCAGCAGCUGCUCCACCCACAAUAAAGCAAACGCCGACAGGCCCGACCCCAGAUUGCAGGGGCUGCCACCUACAAGGUGGGACCACAGGCUGCCUCACCGGGACAACAGAGGAUUGAGCAUCA
B11: chr6:132296306:132296407:-|3pUTR|ENSG00000079931|msi1|total|mutant (ssRNA)
RNA: GGGAGUUCUACAGUCCGACGAUCAUGGGAAACACCGAAAUGGUAUGUAUUAAUAACUGAUCACCGGCUGAGGAGAAAAAAUGCCGCUGGCUGCAAACCCAGUGCUGUGAGGUGACUUAUAUGAGGUUCCAGAUCAAAGACAGGCAACAGAGGAUUGAGCAUCA
B12: chr12:102417490:102417817:-|three_prime_utr|ENSG00000017427|control|control|control (ssRNA)
RNA: GGGAGUUCUACAGUCCGACGAUCACAGAGGCAAGGAUGAUGAGAGAGGAGCAGACAGCAAGAAUGAAAAGCAGAAAAUACAAUAGAGGAAAUGAAGAAAAGUAGGCCUGCUGGAGCUAGAUGAUGAUGUGAUGGAAAUAGAAGCAACAGAGGAUUGAGCAUCA
B13: ENSG00000065911:stop:overlap|stop_codon|ENSG00000065911|stop_codon|NA|stop_codon (ssRNA)
RNA: GGGAGUUCUACAGUCCGACGAUCACAGCUGCUCCCUUCGCCUUCGCCCUUUCCACCUCGCGGCAGUUCGGGGAAUCUCUCCCUAGGUCAGGUUGGAGUGCAGUGCUGCAAUCACGGCUUACUGCAGCCUUGACCUCCUGGGCUCAACAGAGGAUUGAGCAUCA
B14: chr16:74503563:74503676:-|CDS|ENSG00000090863|unk|FALSE|bound_elsewhere (ssRNA)
RNA: GGGAGUUCUACAGUCCGACGAUCGGCAACAUCACUGAGUAUCAGUGUCACCAGUACAUUACCAAGAUGACGGCCAUCAUUUUUAGUGAUUACCGUUUAAUCUGUGGCUUCAUGGAUGACUGCAAAAAUGACAUCAACAUUCUGCAACAGAGGAUUGAGCAUCA
B15: chr1:34868604:34869089:-|CDS|ENSG00000116544|control|control|control (ssRNA)
RNA: GGGAGUUCUACAGUCCGACGAUCGCCCCCACCCCCGGCCCUGGGGCCGGCCGCCGUGACUCCUGGAUAGAGCGCGGUUCACGUAGCCUCCCCGACUCAGGCCGCGCAUCCCCCUGCCCACGCGACGGCGAGUGGUUCAUCAAGCAACAGAGGAUUGAGCAUCA
B16: chr9:96387934:96388035:-|3pUTR|ENSG00000165244|msi1|total|mutant (ssRNA)
RNA: GGGAGUUCUACAGUCCGACGAUCAAUAUUUUGUAAAUAUGGACUGCACAGUACAGGGCCGAAAACUACAUAUUGUGGGAAGCCCGAUUUUGCAAGUUUAAUGCAUUCAUUGGAAGCAGUUCUCACAGGAAGCACUUUCUGAAUCAACAGAGGAUUGAGCAUCA
B17: chr20:11926050:11926151:+|3pUTR|ENSG00000132640|msi1|FALSE|unique (ssRNA)
RNA: GGGAGUUCUACAGUCCGACGAUCAUGAAAUGGAAUGAAGGCUAAUAUGCUUGCUUUAUUUACUUUUGUAAUCUUGGAUUUUGUAGCUUUUAAAACUAGAAACCAUUGUUCUAACAAAGCAGGCAACUUUAUUCUAUAAACACACAACAGAGGAUUGAGCAUCA
B18: chr8:65707876:65707977:+|CDS|ENSG00000066855|unk|FALSE|unique (ssRNA)
RNA: GGGAGUUCUACAGUCCGACGAUCCCUGCUGCCCUCAUAGCAGAGGCUCUGAAAAAGAAAUUUGCUUAUCGGUAUCGAAGUGAUAGCCAAGAUGAAGUUGAAAAAGGAAUUCCAAAGUCUGAAUCAGAGGCCACCUCAGAGAGACAACAGAGGAUUGAGCAUCA
B19: chr1:225495143:225495244:-|3pUTR|ENSG00000154380|msi1|total|mutant (ssRNA)
RNA: GGGAGUUCUACAGUCCGACGAUCACAUUAUUAUGAUGGUUUUUGUGCUCUUGUACGUUGGAUGUCUUAAGCUGAGUACAGUUCCGGGGAUCCUUUCUAAUGACAGGAAGGCACUGCUUUCCUCAACACUGUGAUCUGACCUGUCAACAGAGGAUUGAGCAUCA
B20: chr20:4700004:4700108:+|3pUTR|ENSG00000171867|msi1|FALSE|unique (ssRNA)
RNA: GGGAGUUCUACAGUCCGACGAUCUCACCAUCUUUCUAAUCUUUUUCCAGCUUGAGGGAGGCGGUAUCCACCUGCAGCCCUUUUAGUGGUGGUGUCUCACUCUUUCUUCUCUCUUUGUCCCGGAUAGGCUAAUCAAUACCCUUGCAACAGAGGAUUGAGCAUCA
B21: chr12:49763637:49763739:+|3pUTR|ENSG00000139644|msi1_unk|total|mutant (ssRNA)
RNA: GGGAGUUCUACAGUCCGACGAUCAUGUGUAUCAAGGUACAGCAUCGCCGGGUUCCCCUAAACUUGCCCUGUUUUUGUUUUUUCCGUUUGUUAUCCCCUUACUGAGCGGCCUCUACCCGGUGGCUGUGAUUAAAUGUCCCAAGCCAACAGAGGAUUGAGCAUCA
B22: chr7:5620113:5620210:-|3pUTR|ENSG00000011275|msi1_unk|total|mutant (ssRNA)
RNA: GGGAGUUCUACAGUCCGACGAUCGUCACUUUGUAUAAAAACAAGAAACGAUCCGUUCAUUAAACUUUUUCUUUACCUUCUGGCCGUAAAAACCGAUAAAAUAAUUCCGUUUCAACUACUGUGUGUAAAAAGCCUGUAUCAUAUCAACAGAGGAUUGAGCAUCA

Our source for the binding signal values is publication PMC12136788.

Some of the results follow.

The experiment has as its target MSI1 full-length (mouse, UniProt Q61474 1-362). Put plainly: nsRBNS (natural sequence RNA bind-n-seq); RBNS binding buffer (assumed for nsRBNS): 25 mM Tris pH 7.5, 150 mM KCl, 3 mM MgCl2, 0.01% Triton X-100, 500 ug/ml BSA, 20 U/ml SUPERase-In, 4 C; UNK is unkempt and MSI1 is Musashi-1; names of the RNAs are library labels; protein concentration not given here; high values mean tight binding.
Sequence of UniProt Q61474 (Q61474 whole entry): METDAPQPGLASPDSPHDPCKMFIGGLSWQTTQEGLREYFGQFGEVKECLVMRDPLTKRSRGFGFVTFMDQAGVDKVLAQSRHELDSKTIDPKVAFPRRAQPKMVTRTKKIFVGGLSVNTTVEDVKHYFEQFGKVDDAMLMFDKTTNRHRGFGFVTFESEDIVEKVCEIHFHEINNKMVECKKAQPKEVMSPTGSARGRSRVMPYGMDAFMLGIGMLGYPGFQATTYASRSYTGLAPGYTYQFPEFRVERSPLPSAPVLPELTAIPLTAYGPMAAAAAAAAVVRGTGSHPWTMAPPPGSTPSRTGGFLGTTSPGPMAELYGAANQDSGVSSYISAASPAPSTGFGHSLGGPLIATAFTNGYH
Consider B1, for which the binding signal turned out to be 0.408 enrichment R.

B2 registered a binding signal of 3.67 enrichment R. As for B3, the figure is 0.354 enrichment R.

Consider B4, for which the binding signal was 0.949 enrichment R. The molecule B5 gave a binding signal of 0.7 enrichment R. B6 yielded a binding signal of 4.91 enrichment R. The value for B7 was 0.355 enrichment R.

As to B8, the binding signal is 1.36 enrichment R.

B9 registered a binding signal of 2.3 enrichment R. As for B10, the figure is 0.649 enrichment R; as for B11, 0.413 enrichment R; as for B12, 2.53 enrichment R.

B13 showed a binding signal of 0.471 enrichment R.

For the molecule B14, the binding signal stood at 0.238 enrichment R.

As for B15, the binding signal is 0.554 enrichment R. The value for B16 was 0.204 enrichment R; that for B17 was 1.07 enrichment R.

The molecule B18 showed a binding signal of 0.29 enrichment R. In the case of B19, the binding signal came to 0.294 enrichment R. The molecule B20 came in with a binding signal of 1.44 enrichment R.

Molecule B21 gave a binding signal of 0.481 enrichment R.

B22 registered a binding signal of 0.325 enrichment R.
